# Measured values published in PubChem BioAssay AID504832 (National Center for Advancing Translational Sciences (NCATS), 2011).
# About 18,000 (5.8%) of roughly 310,000 compounds were called active. The inconclusive results got no clear call from the source; some entries with a clear call stand among them for comparison. Calls follow the shape of the dose curve; as a rule, active = well fitted inhibition curve with a large enough effect; inconclusive = small, poorly fitted or top-dose-only effect, or another doubt; inactive = no such curve, though single readings can be large or run the other way. Potencies of inconclusive entries are left out as doubtful fits.
# Assay: Primary qHTS for delayed death inhibitors of the malarial parasite plastid, 48 hour incubation
# Conditions: P. falciparum luciferase growth in erythrocytes; series mostly up to 28.7 µM; activity change, negative = inhibition: at the top concentration
# Outline: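 First compound was added to culture medium, then infected red cells at 0.1% parasitemia and 2% hematocrit (final). After incubation at 37 C under 5% CO2, luciferase detection reagent was dispensed and light output recorded.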
# % is scaled to controls: 0 for no effect and ±100 for the full control effect; potency is read from the fitted curve at half-maximal effect; tags tell the direction and shape of the fitted curve.
SMILES,"activity change, negative = inhibition",Potency
Cn1cnc2c1c(=O)n(Cc1cccc(F)c1)c(=O)n2C,inactive: 16.1%,–
CCOC(=O)C1=C(c2ccccc2)Nc2nc(C)nn2C1c1cccc(OC)c1OC (stereo not given),–,active: 11.7 µM
COc1ccc(CCNC(=O)CC2(CC3=NS(=O)(=O)c4ccccc4N3)CCCC2)cc1OC,–,"inconclusive [inhibitor, single point]"
Cc1ccc(SCC(=O)Nc2ccc(N3CCN(C)CC3)c(F)c2)c(C)c1,–,"inconclusive [inhibitor, single point]"
Cc1ccc(-c2csc(N(C)C(=O)c3c(C)nn(-c4ccccc4)c3Cl)n2)cc1,–,active: 11.7 µM
CN(C)C(=O)c1ccc(-c2nnc(NCc3ccccc3)c3ccccc23)cc1,–,active: 13.1 µM
CCc1noc(C)c1C(=O)OCC(=O)N(C)c1c(N)n(Cc2ccccc2)c(=O)[nH]c1=O,inactive: -0.226%,–
CCOc1ccc(NC(=O)CSc2nc3ccccc3nc2N2CCOCC2)cc1,–,"inconclusive [inhibitor, single point]"
CCCCN(C(=O)c1cc2ccccc2o1)c1c(N)n(CCC)c(=O)[nH]c1=O,inactive: 15%,–
Cc1nc(SCC(=O)N(CC(C)C)C2CCS(=O)(=O)C2)c2c(C)c(C)sc2n1 (stereo not given),–,"inconclusive [inhibitor, partial curve, poor fit]"
CCOc1ccc(CCNC(=O)CN2CCN(Cc3ccccc3C)C2=O)cc1OCC,–,"inconclusive [inhibitor, full curve, poor fit]"
Cc1cccc(OCC(=O)Nc2ccc3c(c2)nc(CCN2CCN(C)CC2)n3C)c1,–,"inconclusive [inhibitor, single point]"
CCCCCCCCN=Cc1c(O)[nH]c(=O)[nH]c1=O,inactive: 24.7%,–
CCOCCOC(=O)c1[nH]c2c(c1C)C(=O)CC(c1cccs1)C2 (stereo not given),–,"inconclusive [inhibitor, single point]"
CC1(C)CC(=O)C=C(NCCN2CCN(C(=O)Nc3ccccc3)CC2)C1,inactive: -24.2%,–
N#Cc1cnn2ccc(-c3ccc4c(c3)CCC4)nc12,inactive: -5.7%,–
COc1cccc(/C=C/C(=C2/C(=O)N(c3ccccc3)N=C2C)c2ccc(C)cc2)c1OC,inactive: 12.2%,–
CNC(=S)NNC(=O)c1sc2cc(C(F)(F)F)cnc2c1-c1cccnc1,–,"inconclusive [inhibitor, full curve, poor fit]"
CC1Sc2ccc(C(=O)NCc3cccc(C(F)(F)F)c3)cc2NC1=O (stereo not given),–,"inconclusive [inhibitor, single point]"
O=C(NC(=O)c1cccc(F)c1)Nc1nc(-c2ccc(F)cc2)cc(C(F)(F)F)n1,–,"inconclusive [inhibitor, partial curve, poor fit]"
